The list shows a part of the results. At the low end of the ranking the order means little.

The target in the assay is T1, GST-Rok-C97-191 (UniProt O34857).
T1 sequence: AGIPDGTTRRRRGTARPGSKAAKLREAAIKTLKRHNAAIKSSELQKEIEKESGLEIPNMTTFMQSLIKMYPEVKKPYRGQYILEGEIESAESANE
The experiment in a line: protein binding microarray.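 Also: rank score from −0.5 (least bound) to 0.5 (best bound).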 The conditions noted are these: Rok is a gene silencer of Bacillus subtilis; high values mean tight binding; most listed sequences are background and not binding sites; double strand, one strand shown.
Regarding GACTCGGA, the binding signal is -0.142 E-score.

With CGACCGAG, the binding signal is -0.213 E-score.

For the sequence ACTACGTG, the binding signal was -0.0355 E-score.

CAAGCTAG yielded a binding signal of 0.137 E-score.

Take ACGTTCTG: the binding signal is -0.103 E-score.

Regarding GCTCCGCC, the binding signal is -0.408 E-score.

Take CGGCATGA: the binding signal was -0.117 E-score.

Take AGTCGACG: the binding signal was -0.108 E-score.

For CCGTTGTC, the binding signal was -0.0034 E-score.

Consider AAGCGGTC, for which the binding signal was -0.295 E-score.

Consider ACTCGGGA, for which the binding signal was 0.119 E-score.

In the case of AGACCCTG, the binding signal is -0.33 E-score.

As for ACGGGCTA, the binding signal was -0.105 E-score.

The sequence AGCGCGAT returned a binding signal of 0.164 E-score.

ACAAAGGG: the binding signal was -0.073 E-score.

In the case of ACACCGGA, the binding signal was -0.142 E-score.

Turning to AGGTGATC, the binding signal was -0.0748 E-score.

In turn, TACTTGGA returned a binding signal of 0.134 E-score.

In the case of GACCAGGA, the binding signal was -0.275 E-score.

As to ACCGACCT, the binding signal is -0.0738 E-score.

For the sequence CGAGTGCA, the binding signal is -0.104 E-score.

CAACATGC: the binding signal was -0.0466 E-score.

As to AAAAGACC, the binding signal was -0.0611 E-score.

With AAGATGCC, the binding signal was -0.228 E-score.

The sequence CATCTTTC gave a binding signal of 0.0588 E-score.

Take ACGCACCA: the binding signal is -0.186 E-score.

Regarding CGTTCATA, the binding signal turned out to be 0.0239 E-score.

ACTAATAA showed a binding signal of 0.309 E-score.

The sequence ACGATAGG displayed a binding signal of 0.157 E-score.

Consider ATGGAACA, for which the binding signal was -0.138 E-score.

As to ACGCTATG, the binding signal is 0.0626 E-score.

Consider GTACATTA, for which the binding signal came to 0.278 E-score.

With TCTCATCA, the binding signal is -0.0317 E-score.

ATTCATTA gave a binding signal of 0.162 E-score.

For the sequence AGACGTCC, the binding signal was -0.189 E-score.

In turn, AGATATGG showed a binding signal of 0.12 E-score.

In turn, GCCTTCAC gave a binding signal of 0.0337 E-score.

As to GTCTGATA, the binding signal was found to be 0.11 E-score.

In the case of GCTGAAGA, the binding signal was -0.101 E-score.

In the case of ATTCAGGC, the binding signal was -0.124 E-score.

Take CATTGGGA: the binding signal was 0.0975 E-score.

As to AAATTCCC, the binding signal came to 0.117 E-score.

CCGGCTCA: the binding signal is -0.212 E-score.

For the sequence CAAATGAA, the binding signal turned out to be 0.118 E-score.

On to AACTCAGT, for which the binding signal was -0.168 E-score.

For the sequence AATCTAAG, the binding signal was 0.234 E-score.

As to ACCTCTCG, the binding signal was determined as 0.00338 E-score.

Turning to CGACGTTC, the binding signal turned out to be 0.00193 E-score.

As to GTTGAAGA, the binding signal is -0.125 E-score.

As to AATGCCAC, the binding signal was determined as 0.0235 E-score.

For the sequence AGGTCCAA, the binding signal is -0.283 E-score.

For TACAATGA, the binding signal was determined as 0.112 E-score.

Take TGTAAGAA: the binding signal is 0.222 E-score.

Turning to CCGGGCGC, the binding signal is -0.132 E-score.

TCGTGTAA: the binding signal was determined as 0.109 E-score.

Take AGACATAT: the binding signal was determined as 0.164 E-score.

As to TAATCCGA, the binding signal came out at 0.15 E-score.

In turn, CAGCTACA registered a binding signal of 0.0422 E-score.

ACTTGCAT showed a binding signal of 0.0108 E-score.

With CTGCTCAA, the binding signal is 0.0272 E-score.

CATATAAA returned a binding signal of 0.138 E-score.

In the case of GGACGGCA, the binding signal is -0.181 E-score.

TCTGTCAA: the binding signal is -0.116 E-score.

In the case of GCGATCGC, the binding signal is -0.164 E-score.

Consider AGTTCACC, for which the binding signal turned out to be 0.0316 E-score.

As for AGAGTGGG, the binding signal was -0.186 E-score.

GACCACTC gave a binding signal of 0.00158 E-score.

The sequence GTCTGTTA registered a binding signal of 0.0249 E-score.

As to GGACCGAA, the binding signal was -0.0929 E-score.

GCATCCAA: the binding signal is -0.0621 E-score.

ACTAAACT yielded a binding signal of 0.244 E-score.

Sequence CTTTCTTA registered a binding signal of 0.192 E-score.

Take AAAATTCG: the binding signal was 0.192 E-score.

For CACCCTCG, the binding signal is -0.185 E-score.

In the case of GTCGCGTA, the binding signal was found to be 0.147 E-score.

The sequence GGGTTGTA came in with a binding signal of 0.0386 E-score.

Consider GAGGACTC, for which the binding signal is -0.0608 E-score.

In turn, CAACGGTA yielded a binding signal of 0.207 E-score.

With GCGGTTTA, the binding signal is -0.00762 E-score.

For the sequence CTAAAGGA, the binding signal was -0.128 E-score.

CATAGGTC: the binding signal is -0.00427 E-score.

For the sequence ACTTAATA, the binding signal was determined as 0.239 E-score.

In turn, ATCACGTA gave a binding signal of 0.097 E-score.

Turning to ATGCGAAT, the binding signal is -0.117 E-score.

For the sequence CAATGAGC, the binding signal was -0.197 E-score.

For the sequence AACTGGGA, the binding signal was -0.209 E-score.

For the sequence ACATAGAG, the binding signal was -0.0925 E-score.

For CTTCATGC, the binding signal is -0.0422 E-score.

For the sequence AGGCCCAA, the binding signal was -0.294 E-score.

Regarding ACGATTTG, the binding signal worked out at 0.0282 E-score.

GTATAATA gave a binding signal of 0.413 E-score.

Sequence AAGTACTC displayed a binding signal of 0.146 E-score.

As to ATAATTTC, the binding signal came out at 0.36 E-score.

Consider ACGGTGTG, for which the binding signal is -0.113 E-score.

The record behind these values is PMC6212790.
